Experimental data from a collection of fitness landscapes (doi:10.1126/science.1257360).
Some of the results follow.

B1: PhoQ; a variant is named by its letters at X, in order, P23837 (parent)
chain: MKKLLRLFFPLSLRVRFLLATAAVVLVLSLAYGMVALIGYSVSFDKTTFRLLRGESNLFYTLAKWENNKLHVELPENIDKQSPTMTLIYDENGQLLWAQRDVPWLMKMIQPDWLKSNGFHEIEADVNDTSLLLSGDHSIQQQLQEVREDDDDAEMTHSVAVNVYPATSRMPKLTIVVVDTIPVELKSSYMVWSWFIYVLSANLLLVIPLLWVAAWWSLRPIEALAKEVRELEEHNRELLNPATTRELTSLVRNLNRLLKSERERYDKYRTTLTDLTHSLKTPLXXLQXXLRSLRSEKMSVSDAEPVMLEQISRISQQIGYYLHRASMRGGTLLSRELHPVAPLLDNLTSALNKVYQRKGVNISLDISPEISFVGEQNDFVEVMGNVLDNACKYCLEFVEISARQTDEHLYIVVEDDGPGIPLSKREVIFDRGQRVDTLRPGQGVGLAVAREITEQYEGKIVAGESMLGGARMEVIFGRQHSAPKDE

Variants of: B1
Experiment: enrichment ratio after two sorts for PhoP signalling (ratio (wild type AVST 3.29)); higher = more functional
Settings: with PhoP (E. coli)

| Variant | enrichment ratio |
| --- | --- |
| HKHY | ≤ 0.25 |
| KAWV | ≤ 0.25 |
| KDMP | ≤ 0.25 |
| LLTF | ≤ 0.25 |
| AENM | ≤ 0.25 |
| IHWF | ≤ 0.25 |
| EMTY | ≤ 0.25 |
| KDVH | ≤ 0.25 |
| EQFS | ≤ 0.25 |
| MPQQ | ≤ 0.25 |
| PANM | ≤ 0.25 |
| FISP | ≤ 0.25 |
| KYFM | ≤ 0.25 |
| LFCW | ≤ 0.25 |
| EAHI | ≤ 0.25 |
| GRGP | ≤ 0.25 |
| VWII | ≤ 0.25 |
| KIMG | ≤ 0.25 |
| KRRI | ≤ 0.25 |
| TQHT | 6.87 |
| FVKF | ≤ 0.25 |
| RPFD | ≤ 0.25 |
| HLCQ | ≤ 0.25 |
| QTQS | ≤ 0.25 |

| Variant | enrichment ratio |
| --- | --- |
| HKNS | ≤ 0.25 |
| FCKR | ≤ 0.25 |
| FCTG | ≤ 0.25 |
| PYGP | ≤ 0.25 |
| TPFR | ≤ 0.25 |
| SKSG | 1.03 |
| IKAM | ≤ 0.25 |
| WTEL | ≤ 0.25 |
| HQMG | ≤ 0.25 |
| EDVV | ≤ 0.25 |
| TGLK | 8.32 |
| IPRL | ≤ 0.25 |
| RKFG | ≤ 0.25 |
| DAYL | ≤ 0.25 |
| IHKN | ≤ 0.25 |
| WSGE | ≤ 0.25 |
| GLSW | ≤ 0.25 |
| MIWR | 0.653 |
| SDLM | 7.82 |
| EVWS | ≤ 0.25 |
| SDVW | ≤ 0.25 |
| QRGI | ≤ 0.25 |
| NMTM | ≤ 0.25 |
| VLWK | ≤ 0.25 |

| Variant | enrichment ratio |
| --- | --- |
| IKQG | ≤ 0.25 |
| RKGK | ≤ 0.25 |
| DNDY | ≤ 0.25 |
| FQWF | ≤ 0.25 |
| FKLP | ≤ 0.25 |
| PLSY | ≤ 0.25 |
| FTFP | ≤ 0.25 |
| VWSG | ≤ 0.25 |
| PTPK | ≤ 0.25 |
| MSLE | 3.24 |
| YSEY | ≤ 0.25 |
| KLTM | ≤ 0.25 |
| TCVV | ≤ 0.25 |
| FCFH | ≤ 0.25 |
| WSII | ≤ 0.25 |
| TVNK | ≤ 0.25 |
| QHGH | ≤ 0.25 |
| NGNS | ≤ 0.25 |
| ADWN | ≤ 0.25 |
| EAMC | ≤ 0.25 |
| PWQQ | ≤ 0.25 |
| GVPN | ≤ 0.25 |
| KPLK | ≤ 0.25 |
| HYPW | ≤ 0.25 |

| Variant | enrichment ratio |
| --- | --- |
| ITAM | 0.308 |
| SDPH | ≤ 0.25 |
| PKYQ | ≤ 0.25 |
| FVYR | ≤ 0.25 |
| TPRF | ≤ 0.25 |
| LFPN | ≤ 0.25 |
| KYWH | ≤ 0.25 |
| IWRN | ≤ 0.25 |
| HRQR | ≤ 0.25 |
| DMNA | ≤ 0.25 |
| KHMK | ≤ 0.25 |
| AHGF | ≤ 0.25 |
| SWKC | ≤ 0.25 |
| TPHH | ≤ 0.25 |
| TIWI | ≤ 0.25 |
| NNWM | ≤ 0.25 |
| AGKS | ≤ 0.25 |
| QIHS | 3.97 |
| IYHH | ≤ 0.25 |
| DFSV | ≤ 0.25 |
| PLRS | ≤ 0.25 |
| RQWY | ≤ 0.25 |
| VKYG | ≤ 0.25 |
| GQVT | ≤ 0.25 |

| Variant | enrichment ratio |
| --- | --- |
| AYRS | ≤ 0.25 |
| VWRK | ≤ 0.25 |
| MLGV | ≤ 0.25 |
| YGTE | ≤ 0.25 |
| WTDI | ≤ 0.25 |
| DFHR | ≤ 0.25 |
| KQLP | ≤ 0.25 |
| IVHH | ≤ 0.25 |
| SNLA | 6.53 |
| VKFG | ≤ 0.25 |
| MAVP | ≤ 0.25 |
| PPIT | ≤ 0.25 |
| YYAT | ≤ 0.25 |
| QFIT | ≤ 0.25 |
| RFET | ≤ 0.25 |
| SLIV | ≤ 0.25 |
| SQYS | ≤ 0.25 |
| WGEH | ≤ 0.25 |
| VWAY | ≤ 0.25 |
| TYFG | ≤ 0.25 |
| FIHN | ≤ 0.25 |
| VTSW | ≤ 0.25 |
| HSWA | ≤ 0.25 |
| LAHV | ≤ 0.25 |

| Variant | enrichment ratio |
| --- | --- |
| HSPT | ≤ 0.25 |
| FYFY | ≤ 0.25 |
| GKTI | ≤ 0.25 |
| PGEL | ≤ 0.25 |
| LHWE | ≤ 0.25 |
| PLIL | ≤ 0.25 |
| NDTP | ≤ 0.25 |
| PRCM | ≤ 0.25 |
| RQGG | ≤ 0.25 |
| TGRA | ≤ 0.25 |
| AKSQ | 20.1 |
| KVPR | ≤ 0.25 |
| GERV | ≤ 0.25 |
| DDVH | ≤ 0.25 |
| EGWR | ≤ 0.25 |
| SSIR | ≤ 0.25 |
| TIPR | ≤ 0.25 |
| LTWS | ≤ 0.25 |
| NKEA | ≤ 0.25 |
| VRDK | ≤ 0.25 |
| WGSE | ≤ 0.25 |
| MRSE | ≤ 0.25 |
| KINI | ≤ 0.25 |
| KIWF | ≤ 0.25 |

| Variant | enrichment ratio |
| --- | --- |
| KWMC | ≤ 0.25 |
| GKLH | ≤ 0.25 |
| YQTF | ≤ 0.25 |
| LDFR | ≤ 0.25 |
| GYSL | ≤ 0.25 |
| NKVL | ≤ 0.25 |
| DKFW | ≤ 0.25 |
| NCPN | ≤ 0.25 |
| MGCV | 14 |
| TIYM | 2.83 |
| FNQP | ≤ 0.25 |
| GKGV | ≤ 0.25 |
| RSAK | ≤ 0.25 |
| SGVP | ≤ 0.25 |
| WNLD | ≤ 0.25 |
| WGWP | ≤ 0.25 |
| GCLL | 18.3 |
| MVFP | ≤ 0.25 |
| LVCM | ≤ 0.25 |
| DWAI | ≤ 0.25 |
| TVNM | 13.5 |
| LFWF | ≤ 0.25 |
| LCVW | ≤ 0.25 |
| QSRC | ≤ 0.25 |

| Variant | enrichment ratio |
| --- | --- |
| DAQF | ≤ 0.25 |
| YYWT | ≤ 0.25 |
| QSPQ | ≤ 0.25 |
| YVLG | 1.8 |
| YSLM | 9.22 |
| IEPM | ≤ 0.25 |
| LPEY | ≤ 0.25 |
| RDFM | ≤ 0.25 |
| HRWY | ≤ 0.25 |
| WFTM | ≤ 0.25 |
| RWLE | ≤ 0.25 |
| ARKY | ≤ 0.25 |
| VTPI | ≤ 0.25 |
| GYGH | ≤ 0.25 |
| AHCD | ≤ 0.25 |
| DFNQ | ≤ 0.25 |
| KPAN | ≤ 0.25 |
| TTLS | 15.1 |
| TADE | ≤ 0.25 |
| DWQT | ≤ 0.25 |
| YGAG | ≤ 0.25 |
| FNMI | ≤ 0.25 |
| PGNM | ≤ 0.25 |
| LTFK | ≤ 0.25 |

| Variant | enrichment ratio |
| --- | --- |
| TWVK | ≤ 0.25 |
| HASA | ≤ 0.25 |
| NGLY | ≤ 0.25 |
| KYFL | ≤ 0.25 |
| DDKF | ≤ 0.25 |
| TCVQ | ≤ 0.25 |
| MRCI | ≤ 0.25 |
| TIAV | 9.45 |
| YTCY | ≤ 0.25 |
| QCPG | ≤ 0.25 |
| IPDQ | ≤ 0.25 |
| TWPL | ≤ 0.25 |
| HVNK | ≤ 0.25 |
| ANIR | ≤ 0.25 |
| MPVP | 0.741 |
| PVAA | ≤ 0.25 |
| HRDC | ≤ 0.25 |
| RCDA | ≤ 0.25 |
| ENKI | ≤ 0.25 |
| FEPW | ≤ 0.25 |
| IQRG | ≤ 0.25 |
| EDWH | ≤ 0.25 |
| DADY | ≤ 0.25 |
| PAAM | ≤ 0.25 |

| Variant | enrichment ratio |
| --- | --- |
| QGPV | ≤ 0.25 |
| REDF | ≤ 0.25 |
| HTTV | ≤ 0.25 |
| SVYF | ≤ 0.25 |
| KDQH | ≤ 0.25 |
| QIRM | ≤ 0.25 |
| MFNA | ≤ 0.25 |
| SWRF | ≤ 0.25 |
| DGFM | ≤ 0.25 |
| RQLH | ≤ 0.25 |
| VGTN | ≤ 0.25 |
| WRWN | ≤ 0.25 |
| QKFG | ≤ 0.25 |
| ITIC | ≤ 0.25 |
| GTEW | ≤ 0.25 |
| LWDM | ≤ 0.25 |
| GLHP | 0.28 |
| YDAI | ≤ 0.25 |
| AWAL | ≤ 0.25 |
| HGDD | ≤ 0.25 |
| QYNR | ≤ 0.25 |
| WDSI | ≤ 0.25 |
| YTRK | ≤ 0.25 |
| KDGI | ≤ 0.25 |

| Variant | enrichment ratio |
| --- | --- |
| YIHM | ≤ 0.25 |
| DTQG | ≤ 0.25 |
| GYAL | ≤ 0.25 |
| LICD | ≤ 0.25 |
| YYVD | ≤ 0.25 |
| WTNL | ≤ 0.25 |
| AANP | ≤ 0.25 |
| MANQ | ≤ 0.25 |
| NKAR | ≤ 0.25 |
| TRQC | ≤ 0.25 |
| SEAP | ≤ 0.25 |
| VISE | ≤ 0.25 |
| MCLT | 0.891 |
| LWDR | ≤ 0.25 |
| WMPC | ≤ 0.25 |
| VIGI | ≤ 0.25 |
| LCWQ | 4.15 |
| AIVN | 3.15 |
| PAYG | ≤ 0.25 |
| WGLT | ≤ 0.25 |
| FKSF | ≤ 0.25 |
| SQHP | ≤ 0.25 |
| IEYN | ≤ 0.25 |
| GLST | ≤ 0.25 |

| Variant | enrichment ratio |
| --- | --- |
| RIEC | ≤ 0.25 |
| SNEE | ≤ 0.25 |
| WICF | ≤ 0.25 |
| LCWP | ≤ 0.25 |
| FVKL | ≤ 0.25 |
| GFWH | ≤ 0.25 |
| LSEE | ≤ 0.25 |
| KMVY | ≤ 0.25 |
| MFTM | ≤ 0.25 |
| QKVM | ≤ 0.25 |
| PQEG | ≤ 0.25 |
| EFLN | ≤ 0.25 |
| MRRL | ≤ 0.25 |
| WLMM | ≤ 0.25 |
| MEWM | 6.32 |
| HIQP | ≤ 0.25 |
| AHKR | ≤ 0.25 |
| SSLS | 11.4 |
| RRGQ | ≤ 0.25 |
| HVMR | ≤ 0.25 |
| YKRS | ≤ 0.25 |
| FGGL | ≤ 0.25 |
| IFIG | ≤ 0.25 |
| ICKA | ≤ 0.25 |

| Variant | enrichment ratio |
| --- | --- |
| VKHP | ≤ 0.25 |
| WVVK | ≤ 0.25 |
| NFMC | ≤ 0.25 |
| AEGT | 8.52 |
| TYDW | ≤ 0.25 |
| ACVS | 2.83 |
| AMWV | ≤ 0.25 |
| ECGS | ≤ 0.25 |
| RHNK | ≤ 0.25 |
| KMSA | ≤ 0.25 |
| HWGA | ≤ 0.25 |
| YQMA | ≤ 0.25 |
| ATWP | ≤ 0.25 |
| WPAW | ≤ 0.25 |
| DVQM | ≤ 0.25 |
| KIWG | ≤ 0.25 |
| NDAC | ≤ 0.25 |
| NWHA | ≤ 0.25 |
